In the supplement of paper PMC3334620:
Whole data set: some 33,000 sequences, median “E-score (-0.5 to 0.5)” near -0.056, cut for the highest 2% near 0.38. The list shows a part of the results.

molecular target: Stb4 (UniProt P50104); assay: PBM E-score (8-mer binding enrichment) (E-score (-0.5 to 0.5)); higher = stronger / more preferred TF binding; most listed sequences are background and not binding sites; settings: protein concentration: 200 nM; construct: GST-DNA-binding domain
Summary of the method: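 Yeast transcription factors, full-length or as DNA-binding domains, were expressed with a GST tag using PURExpress in vitro transcription/translation. At about 100-200 nM they were applied to universal all-10-mer Agilent arrays, double-stranded by primer extension on fresh or once-stripped slides. Fluorescent anti-GST detected bound protein, and masliner normalised the scans. E-scores for ungapped eight-base words, pooled with reverse complements, came from the Universal PBM Analysis Suite.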

Sequence | PBM E-score
ACACACTA | -0.0821
CGGAGAGA | 0.232
CAGGATGG | -0.251
TAGCGATA | -0.157
AGGCGAAA | -0.11
AACCATGA | 0.0882
CAGGTTAC | -0.0726
CCGGGAAA | 0.33
AAAGCATG | -0.0421
ATTATGCA | 0.0972
GGGAGGGA | 0.155
GATTTGGA | 0.0244
CATAAATC | 0.025
GAGTAACA | 0.117
ATGTCCGA | 0.319
AGTGGACC | -0.234
AATGGGGC | -0.232
CTGTAACC | 0.0901
CAGGGATG | -0.129
CGATTTAA | -0.122
CATTAAAC | -0.181
GCTCTCCC | 0.0616
AAAATATT | 0.119
CGCCAGCG | -0.0289
AAGGTTTA | -0.25

Sequence | PBM E-score
TTGTGAAA | -0.187
ACATGATC | -0.0719
GAATTGCC | 0.189
ATATTCCC | 0.32
GCAAAGGA | 0.0013
ACATACCC | 0.146
ATCAACTA | -0.177
CAAGAGGA | -0.276
AAAGCAGA | -0.125
GACCAACC | -0.116
ATCTTCTA | 0.0919
AAGGGTCA | -0.166
ACGGAAGC | 0.337
CACCCTGC | -0.0927
GCATTCCC | 0.0931
TACCTCAA | -0.105
AGACCTCC | 0.00922
CAAGCATC | 0.0278
GTAAGTTA | -0.0587
ATCTGGTA | -0.113
ACGTACGC | -0.157
ACAAGGAC | -0.274
CGTTATTA | 0.0429
CTCGTCTC | -0.0768
AGGGAATA | 0.0561

Sequence | PBM E-score
ATGCATGG | -0.0186
TATATATA | 0.125
GAGAATCA | -0.0733
TATCCGCA | 0.408
GATGTCAA | -0.0424
ATTCCAGA | 0.0443
CATGGGGA | -0.132
CATGCTCC | -0.133
AGTGCGGG | 0.161
AGTACTAG | -0.119
CGACCAAG | -0.184
TGGAAAAA | -0.0066
AGAACAGA | 0.0282
CTTTTGAC | -0.167
CTCTTCAG | -0.229
GAAGTGGC | 0.0778
CCTACGGA | 0.144
GCCGTTTA | 0.0517
CGTTTGTA | 0.0503
ATGTTCAC | -0.1
AGGCGCTG | -0.0579
CCGACATC | 0.301
CGGTGAAC | 0.0945
ACGTCACA | -0.2
CAGCTAGG | -0.26

Sequence | PBM E-score
CACGTCTG | -0.203
CGATATAG | -0.0271
GCGGAACA | 0.335
GGGCGACC | -0.114
AAATACAC | -0.134
CAACTGCA | -0.243
ACCCTTAC | -0.188
CGATAAAA | 0.299
CCTCAGGC | -0.123
AACCTTGC | -0.151
CTTTCAAC | -0.047
AGGGTTAG | -0.308
CGGACTCC | 0.155
GTCGTCCA | -0.096
ACATATGA | -0.16
AAGACCGG | 0.113
CACGATCG | 0.0118
AATGGGAC | -0.211
GTGAGCAC | -0.115
CAGGTGCA | -0.175
CAAATCGG | 0.353
CAACATAA | -0.0466
AGCGCCCC | 0.0306
CTTTGTTA | -0.0279
CACGCTCG | 0.119

Sequence | PBM E-score
AGTGCAAA | -0.217
ACCCGTCA | 0.168
ATTATGAC | 0.0214
CGGGACCC | 0.318
CTTGAGGA | 0.0661
GTGTCGAA | -0.0811
CCACCACA | 0.00458
AACAAAGG | -0.118
CCGACTTA | 0.319
AGCAGGAG | -0.0806
ATTGTGTA | 0.0524
AGAGTCAG | -0.0492
AGTGGGTG | -0.0397
AACCCTGG | -0.176
CTTTTTGA | -0.151
CCTTGACA | -0.2
ACTTAGCC | -0.0828
CGCTGTTA | 0.0465
AATGTGTG | -0.0954
ACATATCT | -0.0348
CACACTTC | 0.0113
CCCGTCAA | 0.181
AGTAGACA | -0.035
CATTGCCG | 0.258
AAACAGCT | -0.0795

Sequence | PBM E-score
GAAGCAGA | -0.217
GAAGCCAC | 0.104
GATGAATA | 0.077
AGGTACGA | -0.0929
AACCTAAA | 0.099
AGATGATA | -0.0663
CAGCGCGC | -0.173
AACGACTC | -0.204
ACCGGCAG | 0.192
CTGGAAAC | -0.136
GCTACACA | -0.153
TAGAGCCA | -0.359
CATGAGTC | -0.171
AATGAATC | -0.0935
CACTTCTG | -0.238
GCTACGAC | -0.0399
AGCTGCTA | -0.221
CACTAATC | 0.123
CATTTTTA | 0.0281
AATCCTGA | -0.162
CATGTTCA | -0.345
CCCTTACA | -0.0902
CCGAGTGC | 0.372
CACGAATC | -0.0352
CGTATACA | -0.0455

Sequence | PBM E-score
ATCGTTCG | 0.0667
GAGCCCTA | -0.0185
ATTAGTAA | 0.076
GTTCTTGA | -0.19
GCGTCGAC | -0.155
CATCCATC | -0.115
CTACATTC | 0.0539
GGAAAACC | 0.151
GCCCGTCA | 0.157
CTATTCCC | 0.0798
ATTGGGAA | -0.108
GACGTTCA | -0.0896
GCGGCCCA | 0.0648
TGCTTTAA | -0.127
AGCTTTGC | 0.0466
AAGTCCCG | 0.362
AAATTGTC | 0.0348
ACGAGAAA | -0.0518
AAGTTAAT | -0.0994
ACATATCC | 0.0644
ACTGTTCC | 0.141
GAGCCTCC | -0.0185
